# Laboratory results: PubChem BioAssay (NCATS)
# The shares of active, inactive and inconclusive entries below differ from those in the screen. Calls of active or inactive are those of the source. Calls follow the shape of the dose curve; as a rule, active = well fitted curve in either direction with a large enough effect (not every such curve was filed as active); inconclusive = small, poorly fitted or top-dose-only effect, or another doubt; inactive = flat fitted curve, though single readings scatter.
# Assay: NFAT Signaling Pathway (AID 444);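 also: carbachol stimulus at about its EC50 of 1 µM final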
# Details: Jurkat NFAT-bla M1, carbachol, beta-lactamase ratio, 5 h; at 7.69 µM (top of the series) unless noted
# In short: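 Jurkat cells carrying an NFAT-driven β-lactamase reporter and co-transfected muscarinic M1 receptor were treated with compound plus carbachol (1 uM final, an EC50 level) for 5 h at 37 °C. CCF4 loading followed for 1 h at RT; 460/530 nm ratio gave %activity.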
# % is scaled to controls: 0 for no effect and ±100 for the full control effect.
row,SMILES,"activity change, negative = inhibition"
1,CC1(C)CC(=O)C(C=NCCN2CCN(C(=O)Cc3ccc(F)cc3)CC2)=C(O)C1,inconclusive: -33.8% [inhibitor] [at 17.2 µM]
2,CCCCCCn1c(O)c(C=Nc2c(C)n(C)n(-c3ccccc3)c2=O)c(=O)[nH]c1=O,inconclusive: -42.7% [inhibitor] [at 17.2 µM]
3,CCc1nc(N2CCNCC2)c(C#N)c2c1CSC(C)(C)C2,inconclusive: -74.8% [inhibitor] [at 17.2 µM]
4,O=C(CCN1CC2CCC(CC2)C1)c1cccs1,inconclusive: -45.1% [inhibitor]
5,C=C(C)[C@H]1Cc2c(ccc3c2O[C@H]2COc4cc(OC)c(OC)cc4[C@@H]2C3=O)O1,inconclusive: -40.6% [inhibitor] [at 38 µM]
6,CCn1c(O)c(C(=O)CC2NCCc3ccccc32)c(=O)n(CC)c1=S (centres undefined),inactive: 22.3% [at 17.2 µM]
7,CN1CC=C2C(C#N)=C(N)C(C#N)(C#N)C(c3ccncc3)C2C1 (centres undefined),inconclusive: 62.2% [activator] [at 17.2 µM]
8,Cc1ccc(S(=O)(=O)O[C@H]2CN3CCC2CC3)cc1,inconclusive: -61.4% [inhibitor]
9,CCOC(C(=O)OCC(O)CN(CC)CC)(c1ccccc1)c1ccccc1 (centres undefined),inconclusive: -42.6% [inhibitor] [at 17.2 µM]
10,Clc1ccc(CS[C@@H](Cn2ccnc2)c2ccc(Cl)cc2Cl)cc1,inconclusive: -83.1% [inhibitor] [at 17.2 µM]
11,CC(C)n1cc2c3c(cccc31)[C@@H]1C[C@H](C(=O)O[C@@H](C)[C@H](C)O)CN(C)[C@H]1C2,inactive: -4.79% [at 38 µM]
12,c1ccc(N2CC[C@@]3(CCCNC3)C2)nc1,inconclusive: -43.7% [inhibitor]
13,CCC1(CCSC(=N)N)C(=O)NC(=O)NC1=O,inactive: 1.26%
14,O=c1[nH]c(=O)n(CCc2ccccc2)c(O)c1C=NCCCn1ccnc1,inactive: -27.5% [at 17.2 µM]
